Article PMC5019376
These are yes or no findings as the source states them, for the method shown. Binding seen in cells or lysates may run through a third protein. Some binding calls cover weakened binding; strength is not graded here. Where a sequence is shown, tags or fusion partners need not be part of it.

T1: TIR1 (wild type, BiFC fusion) (Arabidopsis) (UniProt Q570C0)
T1 sequence: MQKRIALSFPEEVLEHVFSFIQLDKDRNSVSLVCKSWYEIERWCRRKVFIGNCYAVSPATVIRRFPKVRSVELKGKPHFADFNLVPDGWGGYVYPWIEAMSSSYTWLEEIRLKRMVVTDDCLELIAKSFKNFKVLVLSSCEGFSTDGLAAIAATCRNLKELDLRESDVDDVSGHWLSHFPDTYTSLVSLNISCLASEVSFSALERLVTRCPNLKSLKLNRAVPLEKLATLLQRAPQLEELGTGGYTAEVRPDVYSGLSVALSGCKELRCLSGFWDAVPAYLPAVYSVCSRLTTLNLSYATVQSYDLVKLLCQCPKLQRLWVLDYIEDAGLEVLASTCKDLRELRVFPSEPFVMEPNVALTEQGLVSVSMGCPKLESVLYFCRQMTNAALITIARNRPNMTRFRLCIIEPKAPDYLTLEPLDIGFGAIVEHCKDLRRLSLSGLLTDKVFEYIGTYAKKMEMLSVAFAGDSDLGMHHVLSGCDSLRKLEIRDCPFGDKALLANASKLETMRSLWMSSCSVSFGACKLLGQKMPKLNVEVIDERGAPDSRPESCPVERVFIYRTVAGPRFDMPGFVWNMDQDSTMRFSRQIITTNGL


Molecular target: T1, TIR1 (wild type, BiFC fusion) (Arabidopsis)
Assay: split reporter; BiFC after transient expression in Nicotiana benthamiana leaves, confocal imaging; some TIR1-TIR1 samples with co-expressed Myc:ASK1 and 100 uM CHX

Row | binding | Binder
1 | binds | S438A/L439A-TIR1 (BiFC fusion) (protein, UniProt Q570C0 1-594) MQKRIALSFPEEVLEHVFSFIQLDKDRNSVSLVCKSWYEIERWCRRKVFIGNCYAVSPATVIRRFPKVRSVELKGKPHFADFNLVPDGWGGYVYPWIEAMSSSYTWLEEIRLKRMVVTDDCLELIAKSFKNFKVLVLSSCEGFSTDGLAAIAATCRNLKELDLRESDVDDVSGHWLSHFPDTYTSLVSLNISCLASEVSFSALERLVTRCPNLKSLKLNRAVPLEKLATLLQRAPQLEELGTGGYTAEVRPDVYSGLSVALSGCKELRCLSGFWDAVPAYLPAVYSVCSRLTTLNLSYATVQSYDLVKLLCQCPKLQRLWVLDYIEDAGLEVLASTCKDLRELRVFPSEPFVMEPNVALTEQGLVSVSMGCPKLESVLYFCRQMTNAALITIARNRPNMTRFRLCIIEPKAPDYLTLEPLDIGFGAIVEHCKDLRRLAASGLLTDKVFEYIGTYAKKMEMLSVAFAGDSDLGMHHVLSGCDSLRKLEIRDCPFGDKALLANASKLETMRSLWMSSCSVSFGACKLLGQKMPKLNVEVIDERGAPDSRPESCPVERVFIYRTVAGPRFDMPGFVWNMDQDSTMRFSRQIITTNGL
2 | binds | K113A/R114A TIR1 (BiFC fusion) (protein, UniProt Q570C0 1-594) MQKRIALSFPEEVLEHVFSFIQLDKDRNSVSLVCKSWYEIERWCRRKVFIGNCYAVSPATVIRRFPKVRSVELKGKPHFADFNLVPDGWGGYVYPWIEAMSSSYTWLEEIRLAAMVVTDDCLELIAKSFKNFKVLVLSSCEGFSTDGLAAIAATCRNLKELDLRESDVDDVSGHWLSHFPDTYTSLVSLNISCLASEVSFSALERLVTRCPNLKSLKLNRAVPLEKLATLLQRAPQLEELGTGGYTAEVRPDVYSGLSVALSGCKELRCLSGFWDAVPAYLPAVYSVCSRLTTLNLSYATVQSYDLVKLLCQCPKLQRLWVLDYIEDAGLEVLASTCKDLRELRVFPSEPFVMEPNVALTEQGLVSVSMGCPKLESVLYFCRQMTNAALITIARNRPNMTRFRLCIIEPKAPDYLTLEPLDIGFGAIVEHCKDLRRLSLSGLLTDKVFEYIGTYAKKMEMLSVAFAGDSDLGMHHVLSGCDSLRKLEIRDCPFGDKALLANASKLETMRSLWMSSCSVSFGACKLLGQKMPKLNVEVIDERGAPDSRPESCPVERVFIYRTVAGPRFDMPGFVWNMDQDSTMRFSRQIITTNGL
3 | binds | V33A/K35A-TIR1 (BiFC fusion) (protein, UniProt Q570C0 1-594) MQKRIALSFPEEVLEHVFSFIQLDKDRNSVSLACASWYEIERWCRRKVFIGNCYAVSPATVIRRFPKVRSVELKGKPHFADFNLVPDGWGGYVYPWIEAMSSSYTWLEEIRLKRMVVTDDCLELIAKSFKNFKVLVLSSCEGFSTDGLAAIAATCRNLKELDLRESDVDDVSGHWLSHFPDTYTSLVSLNISCLASEVSFSALERLVTRCPNLKSLKLNRAVPLEKLATLLQRAPQLEELGTGGYTAEVRPDVYSGLSVALSGCKELRCLSGFWDAVPAYLPAVYSVCSRLTTLNLSYATVQSYDLVKLLCQCPKLQRLWVLDYIEDAGLEVLASTCKDLRELRVFPSEPFVMEPNVALTEQGLVSVSMGCPKLESVLYFCRQMTNAALITIARNRPNMTRFRLCIIEPKAPDYLTLEPLDIGFGAIVEHCKDLRRLSLSGLLTDKVFEYIGTYAKKMEMLSVAFAGDSDLGMHHVLSGCDSLRKLEIRDCPFGDKALLANASKLETMRSLWMSSCSVSFGACKLLGQKMPKLNVEVIDERGAPDSRPESCPVERVFIYRTVAGPRFDMPGFVWNMDQDSTMRFSRQIITTNGL
4 | binds | R403A-TIR1 (BiFC fusion) (protein, UniProt Q570C0 1-594) MQKRIALSFPEEVLEHVFSFIQLDKDRNSVSLVCKSWYEIERWCRRKVFIGNCYAVSPATVIRRFPKVRSVELKGKPHFADFNLVPDGWGGYVYPWIEAMSSSYTWLEEIRLKRMVVTDDCLELIAKSFKNFKVLVLSSCEGFSTDGLAAIAATCRNLKELDLRESDVDDVSGHWLSHFPDTYTSLVSLNISCLASEVSFSALERLVTRCPNLKSLKLNRAVPLEKLATLLQRAPQLEELGTGGYTAEVRPDVYSGLSVALSGCKELRCLSGFWDAVPAYLPAVYSVCSRLTTLNLSYATVQSYDLVKLLCQCPKLQRLWVLDYIEDAGLEVLASTCKDLRELRVFPSEPFVMEPNVALTEQGLVSVSMGCPKLESVLYFCRQMTNAALITIARNRPNMTRFALCIIEPKAPDYLTLEPLDIGFGAIVEHCKDLRRLSLSGLLTDKVFEYIGTYAKKMEMLSVAFAGDSDLGMHHVLSGCDSLRKLEIRDCPFGDKALLANASKLETMRSLWMSSCSVSFGACKLLGQKMPKLNVEVIDERGAPDSRPESCPVERVFIYRTVAGPRFDMPGFVWNMDQDSTMRFSRQIITTNGL

More lines, now with the values behind:

Row | Binder | binding
5 | L439A-TIR1 (BiFC fusion) (protein, UniProt Q570C0 1-594) MQKRIALSFPEEVLEHVFSFIQLDKDRNSVSLVCKSWYEIERWCRRKVFIGNCYAVSPATVIRRFPKVRSVELKGKPHFADFNLVPDGWGGYVYPWIEAMSSSYTWLEEIRLKRMVVTDDCLELIAKSFKNFKVLVLSSCEGFSTDGLAAIAATCRNLKELDLRESDVDDVSGHWLSHFPDTYTSLVSLNISCLASEVSFSALERLVTRCPNLKSLKLNRAVPLEKLATLLQRAPQLEELGTGGYTAEVRPDVYSGLSVALSGCKELRCLSGFWDAVPAYLPAVYSVCSRLTTLNLSYATVQSYDLVKLLCQCPKLQRLWVLDYIEDAGLEVLASTCKDLRELRVFPSEPFVMEPNVALTEQGLVSVSMGCPKLESVLYFCRQMTNAALITIARNRPNMTRFRLCIIEPKAPDYLTLEPLDIGFGAIVEHCKDLRRLSASGLLTDKVFEYIGTYAKKMEMLSVAFAGDSDLGMHHVLSGCDSLRKLEIRDCPFGDKALLANASKLETMRSLWMSSCSVSFGACKLLGQKMPKLNVEVIDERGAPDSRPESCPVERVFIYRTVAGPRFDMPGFVWNMDQDSTMRFSRQIITTNGL | binds
6 | L148A TIR1 (BiFC fusion) (protein, UniProt Q570C0 1-594) MQKRIALSFPEEVLEHVFSFIQLDKDRNSVSLVCKSWYEIERWCRRKVFIGNCYAVSPATVIRRFPKVRSVELKGKPHFADFNLVPDGWGGYVYPWIEAMSSSYTWLEEIRLKRMVVTDDCLELIAKSFKNFKVLVLSSCEGFSTDGAAAIAATCRNLKELDLRESDVDDVSGHWLSHFPDTYTSLVSLNISCLASEVSFSALERLVTRCPNLKSLKLNRAVPLEKLATLLQRAPQLEELGTGGYTAEVRPDVYSGLSVALSGCKELRCLSGFWDAVPAYLPAVYSVCSRLTTLNLSYATVQSYDLVKLLCQCPKLQRLWVLDYIEDAGLEVLASTCKDLRELRVFPSEPFVMEPNVALTEQGLVSVSMGCPKLESVLYFCRQMTNAALITIARNRPNMTRFRLCIIEPKAPDYLTLEPLDIGFGAIVEHCKDLRRLSLSGLLTDKVFEYIGTYAKKMEMLSVAFAGDSDLGMHHVLSGCDSLRKLEIRDCPFGDKALLANASKLETMRSLWMSSCSVSFGACKLLGQKMPKLNVEVIDERGAPDSRPESCPVERVFIYRTVAGPRFDMPGFVWNMDQDSTMRFSRQIITTNGL | binds
7 | S462E/A464E-TIR1 (BiFC fusion) (protein, UniProt Q570C0 1-594) MQKRIALSFPEEVLEHVFSFIQLDKDRNSVSLVCKSWYEIERWCRRKVFIGNCYAVSPATVIRRFPKVRSVELKGKPHFADFNLVPDGWGGYVYPWIEAMSSSYTWLEEIRLKRMVVTDDCLELIAKSFKNFKVLVLSSCEGFSTDGLAAIAATCRNLKELDLRESDVDDVSGHWLSHFPDTYTSLVSLNISCLASEVSFSALERLVTRCPNLKSLKLNRAVPLEKLATLLQRAPQLEELGTGGYTAEVRPDVYSGLSVALSGCKELRCLSGFWDAVPAYLPAVYSVCSRLTTLNLSYATVQSYDLVKLLCQCPKLQRLWVLDYIEDAGLEVLASTCKDLRELRVFPSEPFVMEPNVALTEQGLVSVSMGCPKLESVLYFCRQMTNAALITIARNRPNMTRFRLCIIEPKAPDYLTLEPLDIGFGAIVEHCKDLRRLSLSGLLTDKVFEYIGTYAKKMEMLEVEFAGDSDLGMHHVLSGCDSLRKLEIRDCPFGDKALLANASKLETMRSLWMSSCSVSFGACKLLGQKMPKLNVEVIDERGAPDSRPESCPVERVFIYRTVAGPRFDMPGFVWNMDQDSTMRFSRQIITTNGL | binds
8 | D146A TIR1 (BiFC fusion) (protein, UniProt Q570C0 1-594) MQKRIALSFPEEVLEHVFSFIQLDKDRNSVSLVCKSWYEIERWCRRKVFIGNCYAVSPATVIRRFPKVRSVELKGKPHFADFNLVPDGWGGYVYPWIEAMSSSYTWLEEIRLKRMVVTDDCLELIAKSFKNFKVLVLSSCEGFSTAGLAAIAATCRNLKELDLRESDVDDVSGHWLSHFPDTYTSLVSLNISCLASEVSFSALERLVTRCPNLKSLKLNRAVPLEKLATLLQRAPQLEELGTGGYTAEVRPDVYSGLSVALSGCKELRCLSGFWDAVPAYLPAVYSVCSRLTTLNLSYATVQSYDLVKLLCQCPKLQRLWVLDYIEDAGLEVLASTCKDLRELRVFPSEPFVMEPNVALTEQGLVSVSMGCPKLESVLYFCRQMTNAALITIARNRPNMTRFRLCIIEPKAPDYLTLEPLDIGFGAIVEHCKDLRRLSLSGLLTDKVFEYIGTYAKKMEMLSVAFAGDSDLGMHHVLSGCDSLRKLEIRDCPFGDKALLANASKLETMRSLWMSSCSVSFGACKLLGQKMPKLNVEVIDERGAPDSRPESCPVERVFIYRTVAGPRFDMPGFVWNMDQDSTMRFSRQIITTNGL | binds
9 | D170E TIR1 (BiFC fusion) (protein, UniProt Q570C0 1-594) MQKRIALSFPEEVLEHVFSFIQLDKDRNSVSLVCKSWYEIERWCRRKVFIGNCYAVSPATVIRRFPKVRSVELKGKPHFADFNLVPDGWGGYVYPWIEAMSSSYTWLEEIRLKRMVVTDDCLELIAKSFKNFKVLVLSSCEGFSTDGLAAIAATCRNLKELDLRESDVDEVSGHWLSHFPDTYTSLVSLNISCLASEVSFSALERLVTRCPNLKSLKLNRAVPLEKLATLLQRAPQLEELGTGGYTAEVRPDVYSGLSVALSGCKELRCLSGFWDAVPAYLPAVYSVCSRLTTLNLSYATVQSYDLVKLLCQCPKLQRLWVLDYIEDAGLEVLASTCKDLRELRVFPSEPFVMEPNVALTEQGLVSVSMGCPKLESVLYFCRQMTNAALITIARNRPNMTRFRLCIIEPKAPDYLTLEPLDIGFGAIVEHCKDLRRLSLSGLLTDKVFEYIGTYAKKMEMLSVAFAGDSDLGMHHVLSGCDSLRKLEIRDCPFGDKALLANASKLETMRSLWMSSCSVSFGACKLLGQKMPKLNVEVIDERGAPDSRPESCPVERVFIYRTVAGPRFDMPGFVWNMDQDSTMRFSRQIITTNGL | binds
